Structures are written as SMILES. Hit rate of the full screen: of about 310,000 compounds, about 14,000 (4.5%) showed an effect of 50% or more. Effects have a minus sign here. This is one part of the list.
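Note: peak tail current of the secondary pulse compared with the same well before compound.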

The target in this assay is human ether-à-go-go-related gene (hERG) potassium channel (human, UniProt Q12809). As to the kind of experiment: primary screen, population patch clamp on CHO cells stably expressing hERG.
Sequence of human ether-à-go-go-related gene (hERG) potassium channel (Q12809 whole entry, looked up): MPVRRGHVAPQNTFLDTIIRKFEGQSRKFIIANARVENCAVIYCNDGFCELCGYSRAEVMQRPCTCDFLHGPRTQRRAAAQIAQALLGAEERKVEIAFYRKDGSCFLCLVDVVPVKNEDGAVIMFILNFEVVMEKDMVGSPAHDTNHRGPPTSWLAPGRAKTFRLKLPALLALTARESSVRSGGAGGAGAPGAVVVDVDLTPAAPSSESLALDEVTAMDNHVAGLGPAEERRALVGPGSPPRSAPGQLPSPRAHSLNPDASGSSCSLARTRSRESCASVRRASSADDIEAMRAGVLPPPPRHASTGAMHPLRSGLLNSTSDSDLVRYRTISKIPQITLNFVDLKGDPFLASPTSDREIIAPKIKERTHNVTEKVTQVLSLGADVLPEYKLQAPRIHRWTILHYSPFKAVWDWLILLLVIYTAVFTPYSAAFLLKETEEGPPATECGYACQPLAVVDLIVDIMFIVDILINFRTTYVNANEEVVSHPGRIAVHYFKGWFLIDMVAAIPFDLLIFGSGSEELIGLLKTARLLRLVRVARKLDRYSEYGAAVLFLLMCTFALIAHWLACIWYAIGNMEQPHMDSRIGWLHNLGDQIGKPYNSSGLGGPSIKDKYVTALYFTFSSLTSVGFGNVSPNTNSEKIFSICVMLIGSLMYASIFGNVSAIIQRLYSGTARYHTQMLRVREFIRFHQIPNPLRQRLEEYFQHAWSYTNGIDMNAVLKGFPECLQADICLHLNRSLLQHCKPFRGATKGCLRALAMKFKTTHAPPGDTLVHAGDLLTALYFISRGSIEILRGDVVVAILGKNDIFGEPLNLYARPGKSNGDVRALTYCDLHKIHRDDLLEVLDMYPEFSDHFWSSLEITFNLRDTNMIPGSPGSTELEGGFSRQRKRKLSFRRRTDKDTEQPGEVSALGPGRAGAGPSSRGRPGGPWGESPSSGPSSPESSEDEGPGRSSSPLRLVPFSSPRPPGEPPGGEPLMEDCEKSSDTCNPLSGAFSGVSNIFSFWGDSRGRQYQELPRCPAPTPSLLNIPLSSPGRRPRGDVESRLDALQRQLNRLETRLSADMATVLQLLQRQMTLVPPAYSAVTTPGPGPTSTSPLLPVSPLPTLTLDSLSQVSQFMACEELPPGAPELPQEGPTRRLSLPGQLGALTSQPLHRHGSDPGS
Turning to `COC(=O)COc1ccccc1C(=O)Nc1ccc(OC)cc1`, the “hERG current change (%, negative = inhibition) at 10uM” value was -12%.
The result for `NS(=O)(=O)c1ccc(NC(=S)Nc2ccc(C(=O)N3CCCCC3)cc2)cc1` reads 8.99%; that for `Fc1ccccc1CNc1ccc(Cl)cc1`, -8.14%.
Consider `CCOc1ccccc1NC(=O)CCCNC(=O)c1ccc(Cl)cc1`, for which the “hERG current change (%, negative = inhibition) at 10uM” value is recorded as -1.75%.
Regarding `Cc1c(C(=O)N2CCc3ccccc3C2)oc2ccccc12`, the “hERG current change (%, negative = inhibition) at 10uM” value is -28%.
The result for `COc1ccc(S(=O)(=O)NCC(c2ccco2)N2CCc3ccccc3C2)cc1` (stereo not shown) reads -1.47%; that for `CCOc1ccc2c(c1)s/c(=N\S(=O)(=O)c1ccc(OC)cc1)n2C(F)F`, 9.7%; that for `Cc1c(NC(=O)Nc2ccc3c(c2)OCO3)cccc1[N+](=O)[O-]`, 17.3%.
Under `O=C(O)CCn1cc(/C=N/O)c(-c2cccc([N+](=O)[O-])c2)n1` stands 9.03%; under `CC(NC(=O)CCCc1c[nH]c2ccccc12)c1ccc(F)cc1` (stereo not shown), 9.53%; under `COc1cc(C(=O)N=C2SC3CS(=O)(=O)CC3N2c2ccccc2)cc(OC)c1OC` (stereo not shown), 21%.
`CCOc1ccccc1N1CCN(C(=S)NC(=O)C23CC4CC(CC(C4)C2)C3)CC1`: the “hERG current change (%, negative = inhibition) at 10uM” value is 3.44%.
The result for `O=c1c2c(nc3n1CCS3)c1cc(F)ccc1n2Cc1cc(=O)n2cc(Cl)ccc2n1` reads -10.7%.
The result for `O=C(O)c1cc(N/N=C/c2c[nH]c3ccccc23)ccc1Cl` reads 10.3%; that for `CCCCCOc1ccc(CSCCNC(=S)Nc2ccccc2)cc1`, -5.94%; that for `C#CCOCCOCCOCCNc1nc(N2CCN(C(=O)[C@H](CCC(=O)O)n3cc(C(N)CC(C)C)nn3)CC2)nc(N2CCN(C(=O)[C@H](CCC(=O)O)n3cc(C(N)CC(C)C)nn3)CC2)n1.Cl` (stereo partly shown), 20.6%.
For the compound `COc1ccc(C)cc1NC(=O)C1CCN(S(=O)(=O)c2ccc3c(c2)NC(=O)CO3)CC1`, the “hERG current change (%, negative = inhibition) at 10uM” value is -12.1%.
Turning to `O=C(O)c1ccc(N/N=C2/CCSc3ccc(F)cc32)cc1`, the “hERG current change (%, negative = inhibition) at 10uM” value came out at 2.8%.
The result for `CC(=O)CCc1oc2ccccc2c1-c1ccccc1` reads -1.37%; that for `CCCc1cc(C(=O)Nc2cc(Br)ccc2O)no1`, 6.26%; that for `Cc1c(Br)c([N+](=O)[O-])nn1CCCC(=O)Nc1sc2c(c1C(N)=O)CCC(C)C2` (stereo not shown), -15.7%.
The result for `Cc1ccc2nc(-c3ccc(SCC(=O)Nc4nc(C)cs4)nc3)[nH]c2c1` reads -3.66%; that for `O=S(=O)(CCN1CCN(c2ccccn2)CC1)c1ccc(Cl)cc1Cl`, -24.8%; that for `Cc1ccc(-c2nn3cnnc3c3ccccc23)cc1C`, -22.1%.
The result for `O=C(N/N=C/c1c(O)n(CCC2=CCCCC2)c(=S)[nH]c1=O)c1ccccc1` reads 7.94%; that for `Cc1cccc(OCc2nc(-c3ccccn3)n[nH]2)c1`, -6.94%; that for `COc1ccc2oc(=O)c(C(C)=O)cc2c1`, 13.6%.
On to `COCCOC(=O)C1=C(C)NC(=O)NC1c1c(F)cccc1Cl` (stereo not shown), for which the “hERG current change (%, negative = inhibition) at 10uM” value worked out at 7.02%.
The result for `COCCNc1ncnc2c1cnn2Cc1ccc(Cl)cc1` reads -15.7%; that for `O=C(O)CC(NC(=O)C1c2ccccc2Oc2ccccc21)c1ccc(OC2CCCC2)cc1` (stereo not shown), 11.9%.
Consider `CCOC(=O)c1ccccc1NC(=O)COC(=O)CCNS(=O)(=O)c1ccc(C)c(C)c1`, for which the “hERG current change (%, negative = inhibition) at 10uM” value is 10%.
Under `COc1ccc2cnnc(SCC(=O)Nc3ccc(C(C)=O)cc3)c2c1OC` stands -6.69%.
The result for `CC(C)(O)CC[C@@H](O)[C@](C)(O)C1CC[C@@]2(O)C3=CC(=O)[C@]4(O)C[C@@H](O)[C@@H](O)C[C@]4(C)C3CC[C@]12C` (stereo partly shown) reads 30.1%; that for `CCc1ccccc1NC(=O)COc1cccc(-n2cnnn2)c1`, -8.5%.
Under `CCOC(=O)C1=C(C)C2C3C(=O)N(c4ccccc4C)C(=O)C3C1(C)C1C(=O)N(c3ccccc3C)C(=O)C21` (stereo not shown) stands -0.0223%.
With `Cc1c(NC(=O)c2cccc(S(=O)(=O)N3CCOCC3)c2)c(=O)n(-c2ccccc2)n1C`, the “hERG current change (%, negative = inhibition) at 10uM” value amounted to 3.62%.
Consider `CC(C)CC(NC(=O)COc1ccccc1)C(=O)O` (stereo not shown), for which the “hERG current change (%, negative = inhibition) at 10uM” value is recorded as 20.4%.
Under `O=C(O)c1ccc(NC(=O)c2cn(-c3ccccc3)nc2-c2ccccc2)cc1` stands 32.6%; under `O=C(CCCNC(=O)c1ccc(Cl)cc1)NCc1ccc(F)cc1`, -19.7%; under `CS(=O)(=O)c1nc([N+](=O)[O-])nn1CCCc1ccccc1`, 23.6%.
Under `O=C(CCc1ccccc1)NNC(=O)COc1ccccc1` stands 5.24%; under `O=C(CN1CCOCC1)Nc1cccc(Br)c1`, -15.4%; under `Cc1nn(-c2ccccc2)c2nc(N)c(C#N)c(-c3ccc(F)cc3)c12`, 6.57%.

The record behind these values is article PMC4336329 (PLoS ONE, 2015).
